In PubChem BioAssay AID488969 (Vanderbilt High Throughput Screening Facility, 2010):
“And” between values parts separate entries of the source, which are not always exact repeats. Equal entries are not always repeated. The full ranking holds about 110,000 compounds; the median of “z-score” is about -0.1, and the highest 2% start at about 2. The list shows a part of the results. The source made the active and inactive calls.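 The calls were made as follows: active = z-score in the third read window above 3 or below -3; inactive = the rest.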

The molecules below were run against Metabotropic glutamate receptor 8 (Rattus norvegicus) (UniProt P70579) (assay: rat mGluR8 modulators via GIRK flux, primary screen, cell-based, thallium flux, HTS (AID 488969)). Details: HEK293 rat mGluR8, GIRK (G protein-gated inwardly rectifying potassium channel) thallium flux, FluoZin2; at 10 µM; stronger effect = higher value; submaximal glutamate (EC20) added with thallium.
Sequence of UniProt P70579 (P70579 whole entry, looked up): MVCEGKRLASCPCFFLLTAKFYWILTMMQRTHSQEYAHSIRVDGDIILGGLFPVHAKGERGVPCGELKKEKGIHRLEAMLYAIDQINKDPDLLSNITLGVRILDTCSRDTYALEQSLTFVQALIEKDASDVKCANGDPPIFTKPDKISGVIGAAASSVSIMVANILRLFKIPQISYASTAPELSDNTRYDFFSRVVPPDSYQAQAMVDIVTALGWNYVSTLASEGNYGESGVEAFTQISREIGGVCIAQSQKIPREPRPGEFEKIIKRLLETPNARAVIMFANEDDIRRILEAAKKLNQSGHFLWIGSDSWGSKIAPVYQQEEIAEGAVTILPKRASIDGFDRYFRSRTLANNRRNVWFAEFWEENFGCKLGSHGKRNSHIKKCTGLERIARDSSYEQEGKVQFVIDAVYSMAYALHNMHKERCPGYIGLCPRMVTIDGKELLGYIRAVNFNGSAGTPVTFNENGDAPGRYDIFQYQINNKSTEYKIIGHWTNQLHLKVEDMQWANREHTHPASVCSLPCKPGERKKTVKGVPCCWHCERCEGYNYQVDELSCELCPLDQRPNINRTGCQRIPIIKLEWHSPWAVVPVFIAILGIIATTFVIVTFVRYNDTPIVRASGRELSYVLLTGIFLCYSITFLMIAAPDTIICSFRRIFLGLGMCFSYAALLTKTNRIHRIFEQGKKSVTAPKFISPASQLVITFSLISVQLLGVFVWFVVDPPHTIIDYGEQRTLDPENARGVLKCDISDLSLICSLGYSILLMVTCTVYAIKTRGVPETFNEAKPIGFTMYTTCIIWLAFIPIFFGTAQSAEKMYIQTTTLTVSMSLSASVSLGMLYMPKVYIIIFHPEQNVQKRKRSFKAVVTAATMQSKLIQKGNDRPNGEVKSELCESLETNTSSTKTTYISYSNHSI
For COC(=O)c1ccc2ccn(CC(=O)NC(C)C)c2c1, the z-score was 1.53.
With CN(c1ccc(C(=O)NC2CC3CCC2C3)cc1)S(C)(=O)=O (configuration not stated) the z-score was -0.256.
Work on CCCn1c(-c2cccs2)nc2nc3ccccc3nc21 yielded a z-score of -1.28.
In the case of O=C(CCN1C(=O)C2C3C=CC(C3)C2C1=O)Nc1nccs1 (configuration not stated), the z-score is reported as 0.473.
Molecule Cc1cc[n+]2c3c(cccc13)CCC2 has a z-score of 0.0571.
CCN(CCNC(=O)CN(C)S(=O)(=O)c1cccc2nsnc12)c1ccccc1 showed a z-score of 0.24.
Work on CCOc1cc(CNc2ccc(Br)cc2)cc(Br)c1OCC(=O)NC(C)(C)C yielded a z-score of 1.33.
For O=[n+]1cc(-c2ccccc2)n([O-])c2c1CCC2, the z-score was active: -5.48.
Cc1cc(C(=O)Nc2c(C)nn(Cc3c(Cl)cccc3Cl)c2C)no1 gave a z-score of -0.237.
Molecule O=C(Nc1nnc(SCc2ccccc2Cl)s1)C1COc2ccccc2O1 (configuration not stated) has a z-score of -0.0164.
In the case of O=C(O)CCSc1ccc2ccccc2n1, the z-score is reported as -0.167 and -0.976.
Work on COc1ccc(Nc2c3c(c(C#N)c4nc5ccccc5n24)CCC3)cc1 yielded a z-score of -0.0817.
Molecule CCOC(=O)c1sc(=NC(=O)c2ccc(OC)c(OC)c2)n(C)c1C has a z-score of 0.451.
CCOc1ccc(NC(=O)C23CC4CC(C2)CC(c2ccccc2)(C4)C3)cc1 gave a z-score of -0.381.
For COC(=O)c1nonc1NCn1nnc2ccccc21, the z-score was 0.123.
For Cc1[nH]n(-c2ccccc2)c(=O)c1C=Nc1ccc(S(=O)(=O)N(C)C)cc1, the z-score was -0.431.
Molecule Cc1ccc(C2=C/C(=C/c3cccnc3)C(=O)O2)c(C)c1 has a z-score of -0.254.
CC(=O)NC1=NN(C(C)=O)C(C)(c2ccccc2)S1 (configuration not stated) was tested, and the z-score was -0.154.
Work on CCOC(=O)Cc1csc(NC(=O)CSc2nncn2C)n1 yielded a z-score of 0.176.
CCOC(CNC(=O)c1ccc2c(c1)nc(C)n2-c1cccc(F)c1)OCC showed a z-score of -0.4.
Work on Cc1ccc(C2(C)NC(=O)N(CCOc3ccccc3)C2=O)cc1 (configuration not stated) yielded a z-score of -0.0535.
O=C(Nc1cnn(Cc2ccc(Cl)cc2)c1)c1cnccn1 was tested, and the z-score was 0.0508.
CCC(NC(=O)Cn1cnc2c(=O)n(C)c(=O)n(C)c21)c1ccccc1 (configuration not stated) was tested, and the z-score was 0.0869.
Work on CCOC(=O)c1ccc(S(=O)(=O)NNC(=O)COc2ccccc2C)cc1 yielded a z-score of -0.143.
COc1cccc(/C=N/Nc2ncc(C(F)(F)F)cc2Cl)c1O showed a z-score of -0.0203.
In the case of O=S(=O)(c1cccc2nsnc12)N1CCCC1, the z-score is reported as 0.0295.
CCOC(=O)C1C(=O)N(C(=O)c2cncc(Br)c2)CC1c1ccccc1 (configuration not stated) was tested, and the z-score was -0.264.
Cc1ccccc1Nc1nnc(SCc2cc(=O)n3ccsc3n2)s1 was tested, and the z-score was -0.269.
For Cn1ncc(C#N)c1NC(=O)C1CC(c2ccc(Cl)c(Cl)c2)=NO1 (configuration not stated), the z-score was -0.351.
Work on Cc1ccc(S(=O)(=O)/N=C(\N)Nc2nc(C)c3cc(C)ccc3n2)cc1 yielded a z-score of -0.37.
With CCOC(=O)Cn1nnnc1C(CC)N(Cc1ccccc1)Cc1cc2cc(C)ccc2[nH]c1=O (configuration not stated) the z-score was 0.34.
Nc1[nH]n2c(=O)c3c(nc2c1N=Nc1ccccc1)CCCC3 gave a z-score of -1.13.
Molecule Cc1ccc(OCC(=O)Nc2ccccc2Sc2ccccc2)c([N+](=O)[O-])n1 has a z-score of -0.243.
Cc1ccnc(NC(=O)Nc2ccc(F)cc2)c1 was tested, and the z-score was -0.0587.
In the case of CCOc1ccc(-c2nc(C#N)c(N3CCOCC3)o2)cc1, the z-score is reported as -0.185.
In the case of Cc1ccc2cc(CN(Cc3ccco3)C(=O)c3cccs3)c(=O)[nH]c2c1, the z-score is reported as -0.787.
CCOC(=O)c1cc(NC(=O)c2c(C)noc2C)cc(C(=O)OCC)c1 was tested, and the z-score was -0.178.
Work on O=C(Nc1ccc(-c2nc3ccccc3o2)cc1)C1CCCO1 (configuration not stated) yielded a z-score of -0.486.
In the case of CCOc1ccccc1C(=O)N[C@H](C(=O)Nc1nc2c(s1)CCCC2)C(C)C, the z-score is reported as 0.39.
In the case of COc1ccc(CNC(=O)c2cc(-c3ccc(OC)c(OC)c3)on2)cc1, the z-score is reported as -0.108.
With Cc1ccc(C(=O)N2CCC(C(=O)NCc3cccnc3)CC2)cc1 the z-score was 0.509.
COC(=O)c1cc(NC(=O)C2C3C=CC(C3)C2C(=O)O)cc(C(=O)OC)c1 (configuration not stated) showed a z-score of -0.0594.
Molecule O=C(CSc1nc2ccccc2s1)N1c2ccccc2Sc2ccccc21 has a z-score of 0.0439.
Molecule CS(=O)(=O)N(CC(=O)N1CCOCC1)c1ccc2c3c(cccc13)CC2 has a z-score of -0.129.
In the case of CC(=O)Nc1ccc(S(=O)(=O)NCc2cccnc2)cc1, the z-score is reported as -0.27.
Cc1ccc(S(=O)(=O)CC(=O)Nc2nc(-c3ccccc3)cs2)cc1 was tested, and the z-score was 1.27.
COc1ccc(C2C(=O)N(C3CCCCC3)CC(=O)N2C2CCCCC2)cc1 (configuration not stated) was tested, and the z-score was -0.274.
O=S(=O)(Nc1ccc(-c2nnc(SCc3ccc(Cl)cc3)o2)cc1)c1ccccc1 was tested, and the z-score was -0.0741.
With O=C1Cn2c(nc3ccccc32)-c2ccccc2N1 the z-score was -0.188.
Molecule O=C(Nc1ccc(F)cc1)c1nc[nH]c1C(=O)Nc1ccc([N+](=O)[O-])cc1 has a z-score of -0.0106.
Molecule O=C(Nc1cccc(NC(=O)c2sc3ccccc3c2Cl)c1)c1ccco1 has a z-score of -0.446.
COc1nc(Oc2ccc(C(=O)O)cc2)nc(Oc2ccc(C(=O)O)cc2)n1 showed a z-score of 0.286.
With O=C(Nc1cccc(F)c1)C1C2C=CC3(CN(CCCN4CCOCC4)C(=O)C13)O2 (configuration not stated) the z-score was -0.0721.
With Cc1ccc2cc(C(c3nnnn3C3CCCC3)N(Cc3ccco3)Cc3cccs3)c(=O)[nH]c2c1 (configuration not stated) the z-score was -0.0643.
Work on O=C(N/N=C\c1ccc(OC(=O)c2cccs2)cc1)c1ccc(Cl)cc1 yielded a z-score of 0.0356.
For CN(C)CCCNC(=O)/C=C/c1ccc2c(c1)OCO2, the z-score was -0.0826.
CC(=O)CCc1ccc(OCCCCn2cncn2)cc1 showed a z-score of 0.306.
In the case of O=S(=O)(Nc1cccnc1)c1cc(Cl)ccc1Cl, the z-score is reported as -0.00571.
CCCOC(=O)c1cc(-c2ccc(C=O)o2)ccc1Cl gave a z-score of -0.555.
Cc1ccc(-c2csc3nc(SCC(N)=O)n(Cc4ccccc4)c(=O)c23)cc1 gave a z-score of 1.22.
Work on O=C1OC(C(=O)Nc2nccs2)Cc2ccccc21 (configuration not stated) yielded a z-score of -0.376.
Molecule CCOc1cc2[nH]c(=S)n(CCCC(=O)NCc3ccco3)c(=O)c2cc1OCC has a z-score of -0.26.
For CCOC(=O)NC(NC(=S)Nc1ccccc1OC)C(Cl)(Cl)Cl (configuration not stated), the z-score was 0.0524.
COc1ccc(-c2nncnn2)cc1 gave a z-score of 0.265.
With Cc1cccc(-n2c(-c3ccco3)nc3nc4ccccc4nc32)c1 the z-score was -0.0341.
Molecule CCOc1ccc(OCC(=O)OCn2c(SC)nnc(C)c2=O)cc1 has a z-score of -0.577.
CCOC(=O)Cn1nnc2c(sc3nc4c(c(-c5ccccc5)c32)CCC4)c1=O showed a z-score of 0.109.
In the case of Fc1ccc(/C=N/n2c(-c3cccs3)n[nH]c2=S)cc1, the z-score is reported as active: 4.92.
Oc1ccc2oc3c(c2c1)CCCC3 gave a z-score of -0.132.
For CCN1C(=O)/C(=C/c2cccs2)S/C1=N\S(=O)(=O)c1ccc(C)cc1, the z-score was -0.261.
For CC(NC(=O)c1ccco1)C(c1cccs1)N1CCN(c2ccccc2F)CC1 (configuration not stated), the z-score was -0.556.
O=C1OCCC1N1C(=O)c2ccccc2S1(=O)=O (configuration not stated) showed a z-score of -1.76.
Work on Cc1onc(-c2ccccc2Cl)c1C(=O)N1CCN(c2cccc(Cl)c2)CC1 yielded a z-score of 0.229.
O=C(CCCc1nc2ccccc2s1)N1CCN(c2ccccc2F)CC1 showed a z-score of -0.776.
For CCn1c(=O)cc(SCC(=O)N2CCN(c3ccccc3F)CC2)c2ccccc21, the z-score was -1.15.
Work on CCCCOc1ccc(-c2nnn(CC(=O)NCc3ccco3)n2)cc1 yielded a z-score of 2.02.
Cc1c(C2C(C#N)=C(N)N(c3ccccc3C#N)C3=C2C(=O)CCC3)cnn1C (configuration not stated) was tested, and the z-score was -0.0607.
Molecule CC(=O)N1CCN(c2ccc(NC(=O)c3ccc(N4CCCC4)c([N+](=O)[O-])c3)cc2Cl)CC1 has a z-score of -0.0828.
CN(C(=O)c1cc2nc(-c3ccco3)cc(C(F)(F)F)n2n1)C1CCCCC1 gave a z-score of -0.163.
For COc1ccc(-c2cc3nnc(-c4ccccc4)nc3s2)cc1, the z-score was 0.144.
Molecule COc1ccc(S(=O)(=O)N2CCN(CC(=O)Nc3cccc(F)c3)CC2)cc1 has a z-score of -0.195.
For Cc1cc(C)nc(SCc2nnc(SCC(=O)NCc3ccco3)n2-c2ccccc2)n1, the z-score was -0.73.
With O=C(NCC1CCCO1)c1nc2c(nnn2Cc2ccccc2Cl)c(=O)[nH]1 (configuration not stated) the z-score was -0.458.
O=C(Nc1ccc(F)cc1)c1ccc(CSc2ccccc2)o1 gave a z-score of -0.6.
For CCOC(=O)C(/C(C)=N/NC(=O)C1CC1c1ccccc1)C(C)C (configuration not stated), the z-score was 0.0328.
With COc1ccc(NC(=O)CN(C)C(C)C(=O)N2CCCCC2)cc1 (configuration not stated) the z-score was 0.385.
In the case of CN1C(=O)CC(NNC(=O)c2ccccc2)C1=O (configuration not stated), the z-score is reported as -0.163.
For C=CCn1c(SC(C)C(=O)NCCC2=CCCCC2)nc2ccccc2c1=O (configuration not stated), the z-score was -0.6.
C=CCNS(=O)(=O)c1ccc(OCC(=O)OC)cc1 showed a z-score of 0.201.
Molecule COc1cc(C2c3c(oc4c(C)cc(C)cc4c3=O)C(=O)N2Cc2cccnc2)cc(OC)c1OC (configuration not stated) has a z-score of 0.524.
Molecule CC(C)(C)c1nc2ccccc2[nH]1 has a z-score of -0.0902.
Molecule O=C(CCCC(=O)OCC(Cl)=C(Cl)Cl)Nc1cccc(F)c1 has a z-score of -0.293.
CC(C)(C)c1ccc(C(=O)NCc2ccc(Cl)cc2)cc1 was tested, and the z-score was -0.0762.
O=C(NCc1ccccc1C(F)(F)F)C1CC(c2ccccc2[N+](=O)[O-])=NO1 (configuration not stated) was tested, and the z-score was -0.21.
With Cn1c(=O)cc(OCC(=O)Nc2ccccn2)c2ccccc21 the z-score was -0.376.
Work on BrC(=C\c1ccccc1)/C=N/N1CCN(c2ccccn2)CC1 yielded a z-score of -0.141.
With O=C(c1ccncc1)N1CCN(C(=O)c2ccco2)CC1 the z-score was 0.325.
COc1ccc2[nH]c3nc(SC(C)C)nnc3c2c1 gave a z-score of 0.0617.
Work on CCOC(=O)c1cnc2ccc(C)cc2c1Nc1ccc(N2CCOCC2)cc1 yielded a z-score of -0.272.
COc1cnc(-c2ccccn2)nc1Oc1cccc(Cl)c1 gave a z-score of -0.708.
Molecule Cc1ccc(NC(=O)CSCC(=O)Nc2ccc(N3CCOCC3)c(Cl)c2)cc1 has a z-score of 0.102.
Cc1csc(=NC(=O)c2ccccc2)n1Cc1ccco1 was tested, and the z-score was -0.784.
Cc1noc(NS(=O)(=O)c2ccc(NC(=O)c3ccc(Br)o3)cc2)c1C gave a z-score of -0.272.
For O=C(CSc1nnc(-c2cccs2)n1-c1ccccc1)N1CCN(C(=O)c2ccco2)CC1, the z-score was -2.78.
With CCOC(=O)CCc1c(C)c(C#N)c2nc3ccccc3n2c1-n1ccnc1C the z-score was -0.0505.
For Cc1c(O)ccc(/C(Cc2ccc3ccccc3n2)=N\O)c1O, the z-score was -0.308.
For CCCCCn1ccc(=N)cc1, the z-score was 1.99.
Cc1cccc(/C=C2\CCC(=C3SCCCS3)C2=O)c1 showed a z-score of 0.246.
In the case of O=C(NC1CCCCCCC1)NC1CCCCC1, the z-score is reported as 0.255.
COc1cc(C)c(Br)cc1S(=O)(=O)N1CCOCC1 showed a z-score of -0.212.
COc1ccc(OCC(=O)Nc2cc3oc4ccccc4c3cc2OC)cc1 showed a z-score of -0.347.
Work on CC(=O)Nc1ccc(N=Cc2ccc[nH]2)cc1 yielded a z-score of 0.195.
